# US6294649A, “Method of cell inhibition using polypeptides derived from the venom of the Austrialian jumper ant Myrmecia pilosula” (Northern Sydney Area Health Service, priority 1996, dated 2001)
# Part of at least one peptide drawing is inferred or uncertain, most often the ends. No end group written: not given here.
# Columns and labels:
# [1] = tested on: EBV B-cells; assay: Cell viability studies (7-AAD uptake, flow cytometry); format: cell-based, human; conditions: 10 min
# [2] = tested on: EBV-transformed B-cells; assay: Flow cytometry cell viability (propidium iodide exclusion); format: cell-based, human; conditions: 5 μM, treated for 5 minutes; untreated control about 15% permeable
# Description: (§1) Cell proliferation and flow cytometry have been used to determine the cytotoxic effects on cells. Cell proliferation involves growing cells to log-phase growth and adding Pilosulin 1 at different final peptide concentrations and ^3 H-methyl thymidine at the same time. The cells are incubated at 37° C. for 16 hours, harvested, lysed and washed and the cells liquid scintillation counted. Flow cytometry employs the exclusion of propidium iodide from cells as an index of their viability. In experiments where fluorescent labelled monoclonal antibodies recognising cell specific markers were used, exclusion of 7-actinomycin D was used as the index of cell viability. In these latter experiments cells were incubated with the fluorescent antibodies and then washed to remove unbound antibodies. The treated cells were stored on ice and Pilosulin 1 added 5 minutes prior to flow cytometric measurement.
# Flow cytometry can measure cell viability by their ability to exclude a fluorescent dye such as propidium iodide or 7-actinomycin D. EBV-transformed B-cells were cultured to log-phase growth and venom and venom peptides added. Typically, a proportion of the untreated control cells (usually about 15%) were permeable to propidium iodide. This value represented the control value. Cells were treated for 5 minutes with Pilosulin 1, Pilosulin 2 and melittin over a concentration range of 0.1 to 10 μM and then cell numbers were measured in the flow cytometer.
# [3] = tested on: Antibody-labelled (CD3-FITC) white blood cells (T-cell); assay: Kinetics of cell killing at different temperatures (7-AAD, flow cytometry); format: cell-based
# Description: The kinetics of Pilosulin 1 and melittin cell killing at different temperatures were investigated. Antibody-labelled (CD3-FITC) white blood cells were incubated with 7-AAD (4 μg/mL) and either 1.5 μM Pilosulin 1 or 3 μM melittin. Three tubes were prepared for each peptide and the tubes were incubated at either 0° C. (circles), room temperature (triangles), or 37° C. (diamonds). Samples of each tube were analysed on a flow cytometer at time zero and thereafter at 2, 5 10 and 15 minutes.
# [4] = tested on: cells; assay: Cytotoxicity to cells (cell proliferation and flow cytometry); format: cell-based
# Description: as §1
# [5] = tested on: granulocyte population; assay: Relative cytotoxicity for leucocyte components, flow cytometry (7-actinomycin D uptake); format: cell-based; conditions: brief treatment, 5 μM; preliminary
# Description: as §1
# The relative cytotoxicity of Pilosulin 1 for the different components of the leucocyte population was studied and the results are shown in FIG. 3.
# [6] = tested on: lymphocyte population; assay: as above; format: cell-based; conditions: 5 μM, brief treatment; preliminary
sequence,measurement,setting,value
GLGSVFGRLARILGRVIPKVAK [peptide 1-22],cells killed,[1]; 5 μM,more than 60%
same,cells killed,[1]; 10 μM,killed nearly all cells
GLGSVFGRLARILGRVIPKVAKKLGPKVAKVLPKVMKEAIPMAVEMAKSQEEQQPQ [Pilosulin 1],% Viable Cells,[2],16.2%
same,cells killed,[1]; 0.1 μM,more than 60%
same,cells killed,[1]; concentrations of greater than 0.2 μM,killed all cells
same,cells killed,"[3]; 1.5 μM Pilosulin 1, 0° C., 10 minutes",Fifty
same,cells killed,"[3]; 1.5 μM Pilosulin 1, 37° C., 2 minutes",all cells were killed
same,cells killed,"[3]; 1.5 μM Pilosulin 1, room temperature, 2 minutes",65%
same,cells killed,"[3]; 1.5 μM Pilosulin 1, room temperature, 5 minutes",Eighty
same,concentration found to inhibit cells,[4],approximately 0.02 μM
same,effect on granulocyte population,[5],relatively unaffected
same,killing of lymphocyte population,[6],completely killed
KLGPKVAKVLPKVMKEAIPMAVEMAKSQEEQQPQ [peptide 2],% Viable Cells,[2],85.0%
VLPKVMKEAIPMAVEMAKSQEEQQPQ [peptide 3],% Viable Cells,[2],84.4%
KEAIPMAVEMAKSQEEQQPQ [peptide 4],% Viable Cells,[2],84.3%
EMAKSQEEQQPQ [peptide 5],% Viable Cells,[2],84.2%
RILGRVIPKVAKKLGPKVAKVLPKVMKEAIPMAVEMAKSQEEQQPQ [peptide 1],% Viable Cells,[2],65.2%
